# Source: the supplement of paper PMC12355420
# Counter-ions that a name gives are not always drawn. The list shows a part of the results. Repeats are few or missing, and single values can be far off.
# Tested on: HeLa VPS33A reporter cells
# Assay: relative cell viability (CellMask signal) vs DMSO (fraction of DMSO); HeLa model of a glycosaminoglycan (GAG) storage disease; KI is knock-in and KO knock-out; SDC1 is syndecan 1; higher = less cytotoxic
# Settings: 50 µM; 24 h
# 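Note: primary screen of an FDA-approved drug library in HeLa reporter cells in 96-well format, CellMask signal normalized to DMSO-treated wells set as 1, under 0.5 deemed highly cytotoxic.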
row,Compound,relative cell viability
1,Clc1ccc(Cn2c(CN3CCCC3)nc3ccccc32)cc1 [Clemizole hydrochloride],0.0155
2,CC[C@H](C)C[C@H](C)CCCCCCCCC(=O)N[C@H]1C[C@@H](O)[C@@H](NCCN)NC(=O)[C@@H]2[C@@H](O)CCN2C(=O)[C@H]([C@H](O)CCN)NC(=O)[C@H]([C@H](O)[C@@H](O)c2ccc(O)cc2)NC(=O)[C@@H]2C[C@@H](O)CN2C(=O)[C@H]([C@@H](C)O)NC1=O [Caspofungin Acetate],0.0959
3,CN(C)C/C=C/C(=O)Nc1cc2c(Nc3ccc(F)c(Cl)c3)ncnc2cc1O[C@H]1CCOC1 [Afatinib dimaleate],0.00353
4,CCN(CC)CC#CCOC(=O)C(O)(c1ccccc1)C1CCCCC1 (stereo not drawn) [Oxybutynin],0.0607
5,C[C@H]1O[C@@H](O[C@H]2[C@@H](O)C[C@H](O[C@H]3[C@@H](O)C[C@H](O[C@H]4CC[C@@]5(C)[C@H](CC[C@@H]6[C@@H]5C[C@@H](O)[C@]5(C)[C@@H](C7=CC(=O)OC7)CC[C@]65O)C4)O[C@@H]3C)O[C@@H]2C)C[C@H](O)[C@@H]1O [Digoxin],0.0375
6,CO[C@H]1O[C@@H]2O[C@@]3(C)CC[C@H]4[C@H](C)CC[C@@H]([C@H]1C)[C@@]24OO3 [Artemether (SM-224)*],0.191
7,C[C@@H](O)[C@H]1C(=O)N2C(C(=O)OCOC(=O)C(C)(C)C)=C(SC3CN(C4=NCCS4)C3)[C@H](C)[C@H]12 [Tebipenempivoxil],0.245
8,Clc1ccc(CCC(Cn2ccnc2)Sc2c(Cl)cccc2Cl)cc1 (stereo not drawn) [Butoconazole nitrate],0.0038
